Results on 57 sequences are retold here after the supplement of paper PMC11417369.

This is one part of the list.

The subject of the experiment is PfAP2-HC AP2 domain (GST-tagged). As to the kind of experiment: gcPBM binding intensity (ln(normalized median fluorescence intensity)); higher = stronger DNA binding. The method in brief:
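GST-fused DNA-binding domains of P. falciparum, expressed in E. coli, were applied at about 25 μg on average for 1 h to an Agilent 4 × 180k array of primer-extended double-stranded 36-bp intergenic genomic probes and negative controls. Binding intensity is the highest Masliner-normalised natural-log median intensity across replicate spots of either probe orientation, measured with Alexa488 anti-GST antibody and a 488 nm scan.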
Regarding “CTATATACTAAATGCACACTTATATATTTATATATA [CACACA_site2454]”, the “gcPBM binding intensity (ln)” value turned out to be 9.75.

Regarding “TATATTTTTTTAATATGTACATATATATATAAAACA [XGTACX_site2171]”, the “gcPBM binding intensity (ln)” value was 9.39. Take “CATATATATATATATTGTACAAGATTGTTTTTTTAT [XGTACX_site3913]”: the “gcPBM binding intensity (ln)” value was 9.68. In the case of “ATGATCATAAGACACACACACAAAAAAAAAAAAAAA [CACACA_site6936]”, the “gcPBM binding intensity (ln)” value was 10.1.

For the sequence “TTATATATCTATAATACACACATAATAATATATTTA [CACACA_site7423]”, the “gcPBM binding intensity (ln)” value was 9.59.

Turning to “GCTACGTAAAAAATATGTACATATGAAATATTTTGC [XGTACX_site5111]”, the “gcPBM binding intensity (ln)” value turned out to be 9.54.

As for “TTTCATTGGTTTATAAAATTATGAGATCTTAAAGAC [CACACA_negctrl_site1484]”, the “gcPBM binding intensity (ln)” value turned out to be 9.36. The same measure for “TCTGTAAAGTAATGGACACACAATATATCCATTTAT [CACACA_site1536]”: 9.83; for “ATATATATATATATATGTACATATATTTATATTTAT [XGTACX_site6179]”: 9.56; for “GAATAATATGGACATACACACATATACATACAGATA [CACACA_site5200]”: 10.5. With “ATGCATAAATTTTGAAGTACAAAAAAAAAAAATAAA [XGTACX_site7282]” the figure was 9.51; with “ATACATATATAAATACGTACATATATAATTATATAT [XGTACX_site8178]”, 9.75. With “AAATGAGAAGAAATACGTACATATAATAAAATAATT [XGTACX_site4439]” the figure was 9.79; with “CATGTAATATTAAACACACACTCATATAACTCAATA [CACACA_site4212]”, 10.1. Take “CACATATACTTCTGTGCACACGAATATTTTTCTTCT [CACACA_site1408]”: the “gcPBM binding intensity (ln)” value is 10. The same measure for “AAAATATAATATAATGCACACATAAACAAAAAAAAA [CACACA_site8161]”: 9.96. The same measure for “TTTTTTTTTTTTTTGGGTACATAATAATAACAAGTG [XGTACX_site1034]”: 9.23. With “TTTTATTTAACTCATAATTTTTTAAAAAACAATTAT [XGTACX_negctrl_site19]” the figure was 9.56. For the sequence “CATACAGTATTATACTGTACCCATACAAAAAAATAT [XGTACX_site6130]”, the “gcPBM binding intensity (ln)” value worked out at 9.6.

In the case of “AAATAAAAAAAATTTGCACACCTTCAAAGTAATATA [CACACA_site1583]”, the “gcPBM binding intensity (ln)” value is 9.71.

Turning to “CTTATTTAAGAGTATGAACACACATCATACACATAT [CACACA_site9205]”, the “gcPBM binding intensity (ln)” value stood at 10. With “TTTTTAATATTCTATGCATGCATCGCATATTTGGTT [TGCATGCA_site1004]” the figure was 9.74.

Regarding “TTAACATTATATGAAGGTACAGAAAAAAAAAAATTA [XGTACX_site8530]”, the “gcPBM binding intensity (ln)” value turned out to be 9.52. The same measure for “TTTCTTATAGATTTTAATCCTCTATCAAAAAAAGAA [GTGCAC_negctrl_site162]”: 9.01; for “AACAAATAAAGCTATGACATGTTAAAATTGTTTCAC [XGTACX_negctrl_site67]”: 9.75; for “ATATCTAAATATATTACACACAGATATCTTCCTATA [CACACA_site3701]”: 9.87.

In the case of “ATAAAGGAATTTTATACACACAACATATAAATATAT [CACACA_site7365]”, the “gcPBM binding intensity (ln)” value was 9.88. With “AGAGAAAAATATTTGGACAAAAATAATATAATATAT [CACACA_negctrl_site656]” the figure was 9.58. With “ATTCGTATGAGCATAACACACAATATCGATATTTCT [CACACA_site4165]” the figure was 9.88; with “TCTTTTCAATTATCCTATATTCTTTTATTTTTAATT [GTGCAC_negctrl_site326]”, 9.79. With “CATACACCCATACATACACACATACATACACCCATA [CACACA_site5124]” the figure was 10.4; with “ATAAAACAACAAAGAAAATGAAAAAGTAAAAACATA [CACACA_negctrl_site596]”, 9.85. For “TATTTATAAAAAGATTGTACATTTTTTATTATTGTA [XGTACX_site6016]”, the “gcPBM binding intensity (ln)” value worked out at 9.4. With “TCCTATAATAACGTCACACATTAAATTTAATAAATT [CACACA_site4506]” the figure was 9.59.

Take “TATACAAAATATTTTACACACACATATATATACATA [CACACA_site2616]”: the “gcPBM binding intensity (ln)” value worked out at 10.1. “CATTATTTATTTTAATGTACTTATTTTTAAATTGGT [XGTACX_site8038]”: the “gcPBM binding intensity (ln)” value amounted to 9.54. Consider “AAAAAAAAAAAAAAAACACACATATATCTATAATAT [CACACA_site6665]”, for which the “gcPBM binding intensity (ln)” value worked out at 9.84. With “AGTGCATACATGAATTGTACTTTAAAATAAATTCTA [XGTACX_site8156]” the figure was 9.56; with “AATTAAAATACAAATGTATGCATGTCTCATATAGAA [TGCATGCA_site822]”, 9.71.

Consider “TTACGAATTACATATTGTACATATGCACAATTTTAA [XGTACX_site6802]”, for which the “gcPBM binding intensity (ln)” value worked out at 9.63. The same measure for “TACATAATTTAAAATTTTATAAGTTGTAATTCGTTT [XGTACX_negctrl_site308]”: 9.47. The same measure for “TAAGACATGATATATACACACCTTGTTTTAATTTTC [CACACA_site5282]”: 9.81; for “AGAAATTATAAATACCTACACACTTATCAAAATAAA [CACACA_site2264]”: 10.

For the sequence “TATATCTGTAAATGCACACATATGTGGATATACTTA [CACACA_site5013]”, the “gcPBM binding intensity (ln)” value came out at 9.78. “GTTCATTCATTTTAATGTACAAATTTAACTTTTTCT [XGTACX_site680]”: the “gcPBM binding intensity (ln)” value came out at 9.64.

On to “TATAAATATAAATACACACACATATAGATTATAGAT [CACACA_site6429]”, for which the “gcPBM binding intensity (ln)” value was found to be 10.5. As to “TGCTACATTCTATGTACACACATATACATATATATA [CACACA_site893]”, the “gcPBM binding intensity (ln)” value was 9.86. The same measure for “TCTAATAATATATACACACACATATATATTTATATA [CACACA_site2032]”: 10.2; for “GATAAAGTAAAAATATGTACATATATATTTTAAGTT [XGTACX_site6439]”: 9.89; for “AATACTTTTTTCTGTACACACTTGATTTACTATAAT [CACACA_site5544]”: 10.1. The same measure for TTCATATTCGATAAAGTGCATTAATTTTATTTATCA: 9.36. With TCCAATTGTTCTAGTGTGCACATAAATAAATCTCAT the figure was 9.87; with “TATTAATGCAAATGTTATATGTGCATACATAAATGT [CACACA_negctrl_site790]”, 9.54.

On to “TATTACATACATATCTGTACATATATTAATGCACAA [XGTACX_site3315]”, for which the “gcPBM binding intensity (ln)” value was 9.6. Consider “AAAAATATTAAAAAAGGTACACAGCATATCTCTTTT [XGTACX_site65]”, for which the “gcPBM binding intensity (ln)” value was 9.77. With “AAGAGTTAAAAAAATACACACATATAGATTTTTTTA [CACACA_site7018]” the figure was 9.8; with “ATAAATAAAAAAGAAAGAAAGAAAGAAACAAACAAA [CACACA_negctrl_site1198]”, 9.74.
